The target in this assay is HA-tagged Nipah virus C protein (NiV-C-HA) (Nipah virus) (UniProt Q997F1). Nature of the assay: co-IP; endogenous or overexpressed hVps36 with NiV-C or hVps28; no figure shown.

Here are results for two molecules from paper PMC4874542.

Results are given in words; binding and its absence hold for the method and conditions named. In cells and extracts the contact can be indirect.

B1: endogenous human Vps36 (protein, UniProt Q86VN1 1-386)
chain: MDRFVWTSGLLEINETLVIQQRGVRIYDGEEKIKFDAGTLLLSTHRLIWRDQKNHECCMAILLSQIVFIEEQAAGIGKSAKIVVHLHPAPPNKEPGPFQSSKNSYIKLSFKEHGQIEFYRRLSEEMTQRRWENMPVSQSLQTNRGPQPGRIRAVGIVGIERKLEEKRKETDKNISEAFEDLSKLMIKAKEMVELSKSIANKIKDKQGDITEDETIRFKSYLLSMGIANPVTRETYGSGTQYHMQLAKQLAGILQVPLEERGGIMSLTEVYCLVNRARGMELLSPEDLVNACKMLEALKLPLRLRVFDSGVMVIELQSHKEEEMVASALETVSEKGSLTSEEFAKLVGMSVLLAKERLLLAEKMGHLCRDDSVEGLRFYPNLFMTQS
For B1, the binding result was “no binding”.

B2: overexpressed human Vps36 (protein, UniProt Q86VN1 1-386)
chain: MDRFVWTSGLLEINETLVIQQRGVRIYDGEEKIKFDAGTLLLSTHRLIWRDQKNHECCMAILLSQIVFIEEQAAGIGKSAKIVVHLHPAPPNKEPGPFQSSKNSYIKLSFKEHGQIEFYRRLSEEMTQRRWENMPVSQSLQTNRGPQPGRIRAVGIVGIERKLEEKRKETDKNISEAFEDLSKLMIKAKEMVELSKSIANKIKDKQGDITEDETIRFKSYLLSMGIANPVTRETYGSGTQYHMQLAKQLAGILQVPLEERGGIMSLTEVYCLVNRARGMELLSPEDLVNACKMLEALKLPLRLRVFDSGVMVIELQSHKEEEMVASALETVSEKGSLTSEEFAKLVGMSVLLAKERLLLAEKMGHLCRDDSVEGLRFYPNLFMTQS
B2: the binding entry was “no binding”.
